According to patent US20030104406A1 (Pfizer, published 2003):

Biological target: T1, purified recombinant human mature GDF-8 (dimer) (human, UniProt O14793 267-375, biotinylated with Sulfo-NHS-Biotin in the ActRIIB ELISAs; 125I-labelled (chloramine T) in the L6 cell assays; labelled residues not stated)
T1 construct: It runs as a dimer on SDS-PAGE; also called myostatin; biotinylated GDF-8
T1 sequence: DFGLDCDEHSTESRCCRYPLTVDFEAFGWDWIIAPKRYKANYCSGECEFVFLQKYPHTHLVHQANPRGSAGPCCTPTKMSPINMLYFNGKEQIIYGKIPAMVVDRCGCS
Experiment: ActRIIB competition ELISA with biotinylated GDF-8

binding result: binds
B1: Human GDF-8 Propeptide-IgG1 wt Fc Fusion Protein (FIG. 11A) (Fc fusion)
chain: not shown
notes: The Fc is 232 amino acids of the human IgG1 constant region, starting at the hinge; also called human GDF-8 propeptide-IgG1 Fc fusion protein
